US20250243260A1 (ALPINE IMMUNE SCIENCES, published 2025)

B1: CD80_185-Fc (Fc fusion)
chain: VIHVTKEVKEYATLSCGHNVSVEELAQYRIYWQKEKKMVLTMMSGDLNIWPEYKNRTIFDITNNLSIVILALRPSDEGTYECVVLKYEKDAFKREHLAEVTLSVKADGSGGGGS[omitted - human IgG4 Fc with S228P (EU numbers)]
notes: also called V11Y, T28Y, M47L
B2: CD80_176-Fc (Fc fusion)
chain: B1 chain with E10R, Y11V, H18Y, A26G, Y28T, E35D, L47M, V68L, L85E
notes: also called E10R, H18Y, A26G, E35D, V68L, L85E
B3: CD80_169-Fc (Fc fusion)
chain: B1 chain with E10G, Y11V, Y28T, E35G, D46E, L47V, V68M
notes: also called E10G, E35G, D46E, M47V, V68M
B4: CD80_177-Fc (Fc fusion)
chain: B1 chain with E10G, Y11W, V22S, Y28P, L47M, A71G, E81K, Y87R
notes: also called E10G, V11W, V22S, T28P, A71G, E81K, Y87R
B5: CD80_178-Fc (Fc fusion)
chain: B1 chain with L47M, L85E, Y87I
notes: also called V11Y, T28Y, L85E, Y87I
B6: CD80_172-Fc (Fc fusion)
chain: B1 chain with K9R, E10S, Y28T, M42L, L47M, F59M, V68M, L85E
notes: also called K9R, E10S, V11Y, M42L, F59M, V68M, L85E
B7: CD80_173-Fc (Fc fusion)
chain: B1 chain with L85E
notes: also called V11Y, T28Y, M47L, L85E
B8: CD80_168-Fc (Fc fusion)
chain: B1 chain with K9N, E10G, Y11V, Y28T, L47M, N63S, L85E
notes: also called K9N, E10G, N63S, L85E
B9: CD80_171-Fc (Fc fusion)
chain: B1 chain with E7S, Y11V, H18I, V20L, A26K, Y28T, A71N
notes: also called E7S, H18I, V20L, A26K, M47L, A71N
B10: CD80_175-Fc (Fc fusion)
chain: B1 chain with E10S, Y11F, T62S
notes: also called E10S, V11F, T28Y, M47L, T62S
B11: CD80_166-Fc (Fc fusion)
chain: B1 chain with Y28T, L47V, L85E
notes: also called V11Y, M47V, L85E
B12: CD80_165-Fc (Fc fusion)
chain: B1 chain with Y28T, L47V, F59S, L85E
notes: also called V11Y, M47V, F59S, L85E
B13: CD80_242-Fc, consensus variant CD80 IgV-Fc V11F/T28Y/M47L/T62S (Fc fusion)
chain: B1 chain with Y11F, T62S
notes: variant IgV - GSGGGGS - human IgG4 Fc (S228P)
B14: CD80_238-Fc, consensus variant CD80 IgV-Fc V11Y/D46E/M47V/V68M (Fc fusion)
chain: B1 chain with Y28T, D46E, L47V, V68M
notes: as for B13
B15: CD80_244-Fc, consensus variant CD80 IgV-Fc V11Y/T28Y/M47L/Y87R (Fc fusion)
chain: B1 chain with Y87R
notes: as for B13
B16: CD80_234-Fc, consensus variant CD80 IgV-Fc V11Y/T28Y/M47L/V68L (Fc fusion)
chain: B1 chain with V68L
notes: as for B13
B17: CD80_239-Fc, consensus variant CD80 IgV-Fc V11Y/T28Y/D46E/M47V (Fc fusion)
chain: B1 chain with D46E, L47V
notes: as for B13
B18: CD80_236-Fc, consensus variant CD80 IgV-Fc V11Y/T28Y/M47L/A71G (Fc fusion)
chain: B1 chain with A71G
notes: as for B13
B19: CD80_240-Fc, consensus variant CD80 IgV-Fc V11Y/T28Y/D46E/M47V/V68M (Fc fusion)
chain: B1 chain with D46E, L47V, V68M
notes: as for B13
B20: CD80_235-Fc, consensus variant CD80 IgV-Fc V11Y/M47L/A71G (Fc fusion)
chain: B1 chain with Y28T, A71G
notes: as for B13
B21: CD80_243-Fc, consensus variant CD80 IgV-Fc V11Y/M47L/A71G/Y87R (Fc fusion)
chain: B1 chain with Y28T, A71G, Y87R
notes: as for B13
B22: CD80_241-Fc, consensus variant CD80 IgV-Fc E10S/V11F/T28Y/M47L (Fc fusion)
chain: B1 chain with E10S, Y11F
notes: as for B13

biological target: T1, human PD-L1 (human, UniProt Q9NZQ7); experiment: flow cytometry, SCC152/PD-L1 cells
T1 construct: whole, on cells; also called SCC152/PD-L1 cells
T1 sequence (Q9NZQ7 19-290): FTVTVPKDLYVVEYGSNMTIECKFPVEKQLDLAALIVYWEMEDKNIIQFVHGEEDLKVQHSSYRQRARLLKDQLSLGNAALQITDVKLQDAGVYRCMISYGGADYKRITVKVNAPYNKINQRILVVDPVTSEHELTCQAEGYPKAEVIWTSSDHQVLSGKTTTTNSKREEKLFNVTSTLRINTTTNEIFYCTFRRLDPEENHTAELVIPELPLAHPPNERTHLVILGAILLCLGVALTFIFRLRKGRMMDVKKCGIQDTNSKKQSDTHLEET
Protocol: Binding affinity to CD28 was determined using primary human T cells which endogenously express CD28. Binding to PD-L1 was determined using SCC152 cells transduced with human PD-L1. Binding to CTLA-4 was measured using Chinese hamster ovary (CHO) cells stably transduced to express human CTLA-4.
For staining and analysis by flow cytometry, 75,000 human T cells, SCC152/PD-L1 cells, or CHO/CTLA-4 cells were plated in 96-well round-bottom plates. Cells were spun down and resuspended in staining buffer (PBS (phosphate buffered saline), 1% BSA (bovine serum albumin), 1 mM EDTA, and 0.1% sodium azide) for 20 minutes to block non-specific binding. Afterwards, cells were centrifuged, stain buffer aspirated, and then resuspended in 50 μL of a 1:5 serial dilution of each CD80-Fc candidate variant starting at 100 nM ending at 0.8 nM. Primary staining was performed on ice for 60 minutes, before washing cells in […] staining buffer three times. PE-conjugated anti-human Fc (Jackson ImmunoResearch, USA) was diluted 1:250 in 50 μL staining buffer and added to cells and incubated another 30 minutes at 4° C. Cells were washed two times in 150 μL stain buffer and then fixed in 2% formaldehyde/PBS for 5 minutes at room temperature. Samples were analyzed CytoFLEX LX flow cytometer (Beckman Coulter, USA). Median Fluorescence Intensity (MFI) was calculated for each cell type using the CytExpert software from Beckman Coulter.

Binder | Anti-Human Fc (MFI) at 0.8 nM | Anti-Human Fc (MFI) at 4 nM | Anti-Human Fc (MFI) at 20 nM | Anti-Human Fc (MFI) at 100 nM | fold change vs WT CD80 @20 nM
B1 | 1140 MFI | 2160 MFI | 4630 MFI | 6260 MFI | 6.8 fold
B2 | 1570 MFI | 2490 MFI | 2970 MFI | 3320 MFI | 4.3 fold
B3 | 960 MFI | 1180 MFI | 1400 MFI | 1780 MFI | 2.1 fold
B4 | 727 MFI | 873 MFI | 1220 MFI | 2430 MFI | 1.8 fold
B5 | 780 MFI | 1024 MFI | 1650 MFI | 3250 MFI | 2.4 fold
B6 | 677 MFI | 803 MFI | 1090 MFI | 1690 MFI | 1.6 fold
B7 | 952 MFI | 1660 MFI | 3850 MFI | 5930 MFI | 5.6 fold
B8 | 667 MFI | 711 MFI | 754 MFI | 829 MFI | 1.1 fold
B9 | 627 MFI | 653 MFI | 692 MFI | 738 MFI | 1 fold
B10 | 2830 MFI | 5700 MFI | 6850 MFI | 6770 MFI | 10 fold
B11 | 635 MFI | 629 MFI | 627 MFI | 633 MFI | 0.9 fold
B12 | 1010 MFI | 1960 MFI | 3490 MFI | 3630 MFI | 5.1 fold

biological target: T2, human CD28 (endogenously expressed on primary human T cells) (human, UniProt P10747 19-220); experiment: flow cytometry, primary human T cells
T2 construct: whole, on cells

Binder | MFI (anti-human Fc) at 0.8 nM | MFI (anti-human Fc) at 4 nM | MFI (anti-human Fc) at 20 nM | MFI (anti-human Fc) at 100 nM | fold change of MFI vs WT CD80 at 20 nM
B13 | 255 MFI | 403 MFI | 757 MFI | 980 MFI | 4.2 fold
B14 | 208 MFI | 290 MFI | 547 MFI | 1150 MFI | 3 fold
B15 | 525 MFI | 1420 MFI | 2600 MFI | 4190 MFI | 14.4 fold
B16 | 261 MFI | 453 MFI | 812 MFI | 1160 MFI | 4.5 fold
B17 | 264 MFI | 479 MFI | 1180 MFI | 3110 MFI | 6.6 fold
B18 | 247 MFI | 376 MFI | 680 MFI | 1250 MFI | 3.8 fold
B19 | 542 MFI | 1230 MFI | 2140 MFI | 2760 MFI | 11.9 fold
B20 | 192 MFI | 237 MFI | 330 MFI | 546 MFI | 1.8 fold
B21 | 401 MFI | 873 MFI | 1990 MFI | 3030 MFI | 11.1 fold
B22 | 267 MFI | 486 MFI | 965 MFI | 1560 MFI | 5.4 fold

Substitutions are numbered along the chain they refer to. In names and notes the source's numbering stands.
